Assay results from PubChem BioAssay AID1508623 (National Center for Advancing Translational Sciences (NCATS), 2021).
The whole screen tested about 48,000 compounds, of which about 450 (0.94%) were called active. Roughly 19% stayed inconclusive and do not appear here. Calls follow the shape of the dose curve; as a rule, active = well fitted inhibition curve with a large enough effect; inconclusive = small, poorly fitted or top-dose-only effect; inactive = no such curve, though single readings can be large or run the other way. This is one part of the list.

Experiment: Primary qHTS for Identification of Small Molecule Inhibitors of Huntingtin Promoter Activity; also: nearly all actives have a fitted effect of over 50% in size
Conditions: HEK293 HTT promoter firefly luciferase reporter (activity 0% = vehicle and -100% = no light), 24 h; series mostly up to 57.5 µM; activity change, negative = inhibition: at the top concentration
In short: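 Luminescence was read after Dual-Glo reagent and a 10 min room-temperature incubation. Values were normalized to vehicle (0% activity) and zero RLU (-100% activity). Reporter HEK293 cells had been exposed to compounds (up to 57.5 uM final) for 24 h.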
Potency is read from the fitted curve at half-maximal effect.

Structure (SMILES)	activity change, negative = inhibition	Potency
COc1ccc(Cl)cc1NC(=O)c1sc2nc3n(c(=O)c2c1C)CCC3	inactive: -0.786%	–
CCOc1ccc(CCNS(=O)(=O)c2cc(Br)cc3c2N(C(C)=O)CC3)cc1OCC	inactive: -9.98%	–
Cc1cc(C)n(-c2nc3ccccc3nc2Nc2cccc(C)c2C)n1	inactive: -4.01%	–
COc1cc(Oc2ccnc3cc(OC)c(OC)cc23)ccc1NC(=O)NC(C)c1nccs1 (stereo unspecified)	inactive: -13.5%	–
CCN(CC)C(=O)Cn1c(=O)n(Cc2ccc(C(=O)NCCc3ccc(OC)c(OC)c3)cc2)c(=O)c2ccccc21	inactive: 2.97%	–
Cc1ccc(-n2ncc(C(=O)NCc3ccco3)c2C2CCN(C(=O)OC(C)(C)C)CC2)c(C)c1	inactive: -34.9%	–
CC(=O)c1ccc(N2C(=O)N(CC(=O)c3ccc(F)cc3)c3ccccc3S2(=O)=O)cc1	inactive: -17%	–
COc1ccc(S(=O)(=O)NCCc2csc(-c3ccc(F)cc3)n2)cc1F	inactive: -14.5%	–
CCCCN(CCCNC(=O)c1cc(Nc2ccc(OC)c(OC)c2)nc2ccccc12)Cc1ccccc1	inactive: -2.39%	–
CCOC(=O)C1=C(C)N=C2SCCC(=O)N2C1c1ccc(OCc2ccccc2)cc1 (stereo unspecified)	inactive: -28.5%	–
COc1cccc(C(=O)Nc2cccc(-c3cn4c(C)csc4n3)c2)c1OC	inactive: 10.3%	–
O=C(Nc1cccc(Cl)c1)c1cc2c(=O)[nH]c3ccccc3c2s1	inactive: -2.71%	–
Cc1cccc(-c2nc3c4ccccc4nc(N4CCN(c5cc(C)ccc5C)CC4)n3n2)c1	inactive: -2.17%	–
CC1(C)CCC2=C(O1)c1ccccc1C(=O)C2=O	inactive: -16.3%	–
O=C(Nc1ccc(-c2cn3cccnc3n2)cc1)c1cc(Br)ccc1Cl	inactive: -1.64%	–
Cc1nnc(N2CCCC(C(=O)NCCc3ccc(Cl)cc3)C2)c2nn(-c3ccccc3)c(C)c12 (stereo unspecified)	inactive: -22.8%	–
CCOc1ccc(-c2nn(CC(=O)NC3CCCC3)c3c2cnc2ccc(F)cc23)cc1	inactive: 40.7%	–
CC(=O)OCC[N+](C)(C)C	inactive: 10.1%	–
CC(C)CCNC(=O)CN1N=C(c2ccc(Cl)cc2)CCC1=O	inactive: -11.8%	–
COc1ccc(CN2C(=O)c3ccccc3C2C(=O)NCCc2ccccc2)c(OC)c1 (stereo unspecified)	inactive: 8.32%	–
CC1=C(C(=O)Nc2ccc(C)cc2C)C(c2cccs2)n2nc(SCc3ccccc3Cl)nc2N1 (stereo unspecified)	inactive: -2.25%	–
C[C@H](c1ccc(F)cc1CCCC(=O)O)N(c1cc(F)ccc1F)S(=O)(=O)c1ccc(Cl)cc1	inactive: -25.3%	–
O=c1cc(-c2ccccc2)n2c(SCc3ccc(F)cc3)nnc2[nH]1	inactive: -8.04%	–
Cc1cn2c(=O)cc(COC(=O)COc3ccccc3C)nc2s1	inactive: -4.96%	–

Structure (SMILES)	activity change, negative = inhibition	Potency
CCN(Cc1ccccc1)C(=O)Cn1c(=O)n(-c2ccc(C)c(C)c2)c(=O)c2c(C)c(C)sc21	inactive: -37.4%	–
O=c1oc2ccccc2cc1-c1cn2cc(Cc3ccc(Cl)cc3)sc2n1	inactive: -15.1%	–
O=C(Nc1cccc(C(F)(F)F)c1)c1cc2ccc3cccnc3c2[nH]1	inactive: -2.78%	–
Cc1ccc(-c2nc(C)c(CCNS(=O)(=O)c3ccc(F)c(C(F)(F)F)c3)s2)cc1	inactive: -15.1%	–
CCn1cc(C(=O)N2CCN(c3ccccc3F)CC2)c(=O)c2cc(S(=O)(=O)N(C)C)ccc21	inactive: -4.31%	–
Cc1ccc(NC(=O)CSc2nc(-c3ccco3)cc(C(F)(F)F)n2)cc1	inactive: -27.9%	–
Cc1ccc(NC(=O)CN2C(=O)CCSc3ccc(S(=O)(=O)N4CCCC4)cc32)cc1C	inactive: -29.7%	–
Cc1ccc(C)c(OC(=O)CSc2nnc(CNC(=O)c3ccccc3)o2)c1	inactive: 2.49%	–
Cc1cc2oc(C(=O)Nc3ccc(S(=O)(=O)N4CCCCCC4)cc3)cc(=O)c2cc1C	inactive: -17%	–
CCN(CC)c1ccc(NS(=O)(=O)c2cc3[nH]c(=O)c(=O)[nH]c3cc2C)c(C)c1	inactive: 6.72%	–
CC(C)c1ccc(OC(=O)c2cc(-c3ccccc3)on2)cc1	inactive: 1.42%	–
CCN(CC)c1ccc(NC(=O)CSc2nc(-c3cccs3)cc(C(F)(F)F)n2)cc1	inactive: 5.04%	–
Cc1ccc(NC(=O)Nc2nnc(N(C)Cc3ccccc3)s2)c(C)c1	inactive: -1.93%	–
CC(=O)N1CCc2c(sc3nc(SCC(C)C)n(-c4ccc(F)c(Cl)c4)c(=O)c23)C1	inactive: -16.4%	–
CCCSc1ncc(Cl)c(C(=O)Nc2c(C(=O)Nc3ccc(C)cc3)oc3ccccc23)n1	inactive: -9.63%	–
COC(=O)c1ccc(C2C(C(=O)Nc3ccccc3)=C(C)Nc3nc4ccccc4n32)cc1 (stereo unspecified)	inactive: 1.65%	–
CCc1nc(Oc2cccc(F)c2)c2oc3ccccc3c2n1	inactive: -4.51%	–
CCN(CC)c1ccc(-c2nc(-c3ccccc3C)no2)cc1[N+](=O)[O-]	inactive: -17.7%	–
Cc1ccc(Nc2nc(C)nc(N)c2S(=O)(=O)c2ccccc2)cc1	inactive: -6.65%	–
CC1=C(C(=O)Nc2ccccc2)C(c2cccn2C)n2ncnc2N1 (stereo unspecified)	inactive: -5.61%	–
COc1ccc(Cn2c(=O)c3oc4ccccc4c3n(CC(=O)Nc3ccc(F)cc3F)c2=O)cc1	inactive: 5.36%	–
Cc1ccc(Cl)cc1N1CCN(Cc2nnc(-c3ccc4c(c3)OCO4)o2)CC1	inactive: -32.2%	–
Cc1cc(NC(=O)C2CCN(S(=O)(=O)c3ccc(Br)s3)CC2)ccc1Br	inactive: -2.73%	–
Cc1ccc(CNC(=O)CSc2n[nH]c(-c3ccc(F)cc3)n2)cc1	inactive: -27.8%	–

Structure (SMILES)	activity change, negative = inhibition	Potency
O=S(=O)(c1ccc2nc(N3CCN(c4cccc(Cl)c4)CC3)ccc2c1)N1CCCCC1	inactive: -10.6%	–
Cc1ccc2c(=O)cc(C(=O)Nc3sc4c(c3C(=O)NCc3cccnc3)CCCC4)oc2c1C	inactive: -3.92%	–
Fc1ccc(-c2noc3ncnc(NCCCN4CCN(c5ccccc5)CC4)c23)cc1	inactive: -15.6%	–
O=c1oc2c(CN3CCN(CCO)CC3)c(O)ccc2cc1-c1ccccc1	inactive: -18.3%	–
COc1cccc(NC(=O)CC2NCCNC2=O)c1 (stereo unspecified)	inactive: 3.57%	–
COc1ccc(C(=O)NCC(c2ccc(N(C)C)cc2)N2CCc3ccccc32)c(OC)c1 (stereo unspecified)	inactive: -17.2%	–
COc1ccc(S(=O)(=O)NCC(c2ccco2)N2CCOCC2)cc1OC (stereo unspecified)	inactive: 1.97%	–
CCc1cc(C(=O)Nc2cnn(Cc3ccccc3C)c2)no1	inactive: 42.6%	–
Cc1ccc(NC(=O)CCc2c(C)nc3cc(-c4ccccc4)nn3c2C)cc1F	–	active: 2000 nM
COc1ccc(-c2nc3c(C#N)c[nH]n3c2NC2CCCC2)c(OC)c1	inactive: -22.7%	–
CCCCCNC(=O)CCCCCn1c(=O)[nH]c2ccsc2c1=O	inactive: 4.86%	–
COc1ccc(CNC(=O)C2CCN(c3nc4ccccc4[nH]3)CC2)cc1OC	inactive: 2.86%	–
O=C(Nc1sc2c(c1C(=O)NCC1CCCO1)CCC2)c1cc(=O)c2ccccc2o1 (stereo unspecified)	inactive: -20.6%	–
CCOC(=O)c1c(S(=O)(=O)N2CCCC(C(=O)Nc3cccc(C)n3)C2)c(C)n(C)c1C (stereo unspecified)	inactive: -8.33%	–
OCCN1C[C@H](O)[C@@H](O)[C@H](O)[C@H]1CO	inactive: 7.39%	–
CCOc1ccc(C2CC(=O)Nc3c2c(=O)nc(SCc2ccccc2C)n3C)cc1OC (stereo unspecified)	inactive: -17%	–
CCn1cc(C(=O)OCC(=O)Nc2cccc(C(C)=O)c2)c(=O)c2ccc(C)nc21	inactive: -13.3%	–
COc1ccc(Cn2c(=O)c3oc4ccccc4c3n(Cc3ccc(Cl)cc3)c2=O)cc1	inactive: -4.71%	–
CCOC(=O)c1c(C)[nH]c(C)c1S(=O)(=O)N1CCCC(C(=O)N2CCN(c3ccccc3)CC2)C1 (stereo unspecified)	inactive: -11.1%	–
CCOCCc1nn2c(=O)cc(COC(=O)C3CCCCC3)nc2s1	inactive: -3.66%	–
Cc1ccc2c(=O)cc(C(=O)Nc3cccc(C(F)(F)F)c3)oc2c1C	inactive: -0.938% [at 11.5 µM]	–
Cc1cccn2c(=O)c3cc(C(=O)NC(C)c4ccccc4)c(=N)n(CCCO)c3nc12 (stereo unspecified)	inactive: -5.62%	–
Cc1ccc(NC(=O)CSc2nnc3scc(-c4ccccc4)n23)cc1	inactive: -17.4%	–
COC(=O)c1ccc(OCC2c3cc(OC)c(OC)cc3CCN2C(=O)c2ccc(F)cc2)cc1 (stereo unspecified)	inactive: -28.6%	–

Structure (SMILES)	activity change, negative = inhibition	Potency
CCOc1ccc(CN2CCc3nc(Nc4ccc(OC)cc4OC)ncc3C2)cc1	inactive: -19.4%	–
Cc1c(CCOc2ccc(C(=O)O)cc2)c2cc(Cl)ccc2n1C(c1ccccc1)c1ccccc1	inactive: -3.35%	–
COc1ccc2c(c1)c1c(c(=O)n(CCc3ccccc3)c(=O)n1Cc1ccc(F)cc1)n2C	inactive: -19.8%	–
CCN(CC)CCCNC(=O)c1nn(C)c2c1CS(=O)(=O)c1ccccc1-2	inactive: -13.2%	–
Cc1ccccc1Cn1c(CN2CCC(C(=O)NCCc3ccccc3)CC2)cc2ccccc21	inactive: -8.08%	–
CCC(=O)Nc1cccc(C(=O)OCc2cc(=O)n3nc(CC)sc3n2)c1	inactive: 7.67%	–
Cc1ccc2sc(NC(=O)c3ccc4c(c3)OCCO4)nc2c1C	inactive: -5.37%	–
COc1ccc2c(c1)c1c(c(=O)n(-c3ccc(F)c(Cl)c3)c(=O)n1Cc1ccccc1C)n2C	inactive: -2.28%	–
CCN(CC)c1nc2ccccc2nc1C(=O)Nc1cccc(C(C)=O)c1	inactive: -24.5%	–
CCSC1=NC2(CCN(C(=O)NC3CCCCC3)CC2)N=C1c1ccc(Cl)cc1	inactive: -14.1%	–
CCN1C(=O)c2ccccc2Sc2ccc(NC(=O)c3ccc(Cl)cc3)cc21	inactive: -15.2% [at 11.5 µM]	–
Cc1oc2ncn(C)c(=O)c2c1C(=O)N1CCN(c2ccccc2F)CC1	inactive: -12%	–
CCc1nn(Cc2ccc(Cl)cc2)c(=O)c2cc3cc(C)ccc3n12	inactive: -8.28%	–
Cc1cccc(NS(=O)(=O)c2ccc3c(c2)C(C)(C)C(=O)N3C)c1	inactive: -23.3%	–
CS(=O)(=O)N(Cc1ccco1)CC(O)Cn1c2ccccc2c2ccccc21 (stereo unspecified)	inactive: -10.8%	–
CCOC(=O)N1CCc2c(sc(NCc3cc(OC)c(OC)cc3OC)c2C(=O)Nc2ccc(OCC)cc2)C1	inactive: -16.1%	–
CCc1ccc(-n2c(=O)c3cccnc3n2CC(=O)Nc2cc(F)ccc2F)cc1	inactive: -23.5%	–
CCN(CC)C(=O)Cn1cc(SCC(=O)Nc2ccccc2C)c2ccccc21	inactive: -12.1%	–
CCN1CCN(c2ncc3c(n2)CCN(Cc2ccc(OC(C)C)cc2)C3)CC1	inactive: -20.5%	–
Cc1cccc(-c2nc(SCCCOc3ccc(Cl)c(C)c3)n3[nH]c(=O)cc3n2)c1	inactive: -24.8%	–
CC(O)CCCCn1c(=O)c2c(ncn2C)n(C)c1=O (stereo unspecified)	inactive: 1.05%	–
CCOC(=O)c1ccc(-c2ccc(/C=C(\C#N)C(=O)Nc3ccc(OCC)cc3)o2)cc1	inactive: 29.7%	–
COc1ccc(Cl)cc1-n1nnc(-c2nsc(NC(=O)c3ccccc3Cl)n2)c1C	inactive: -8.07%	–
Cc1ccc(NC(=O)C2CCC(CNS(=O)(=O)c3csc(C(N)=O)c3)CC2)cc1Cl (stereo unspecified)	inactive: -23%	–
